Assays:
Format in all cases: cell-based
HeLa cells = test: Cytotoxicity toward HeLa cells
[1] = tested on: various cancer cell lines; test: Antitumor activity toward various cancer cell lines; conditions: Table 2 cell lines
[2] = tested on: primary human chronic lymphocytic leukemia cells (CLL); test: Cytotoxicity toward primary CLL cells

| SMILES | activity toward HeLa cells (in words) (HeLa cells) | potency increase toward HeLa cells versus C14-Br (HeLa cells; C14-chloro versus C14-bromo derivative) [X] | activity relative to AglA toward various cancer cell lines (in words) [1] | activity toward CLL cells (in words) [2] |
| --- | --- | --- | --- | --- |
| Cc1c(Br)c(Br)n2c1C(=O)N[C@@H]1[C@H]2C[C@]2(O)[C@H]1NC(=O)N2C [Compound 7] | inactive |  |  |  |
| CN1C(=O)N[C@H]2[C@@H]3NC(=O)c4cc(Cl)c(Br)n4[C@@H]3C[C@]21O [Compound 3, 14-chloro AglA] |  | 17 | comparable activity to AglA |  |
| CN1C(=O)N[C@H]2[C@@H]3NC(=O)c4c(Br)c(Br)c(Br)n4[C@@H]3C[C@]21O [Compound 5, 15-bromoAgelB] | inactive |  |  |  |
| Cc1c(C)c2n(c1Br)[C@@H]1C[C@]3(O)[C@@H](NC(=O)N3C)[C@@H]1NC2=O [Compound 8] | no activity was observed |  |  |  |
| CN1C(=O)N[C@H]2[C@@H]3NC(=O)c4cc(-c5ccccc5)c(-c5ccccc5)n4[C@@H]3C[C@]21O [Compound 10] | did not show significant activity |  |  | did not show significant activity |
